Data: PubChem BioAssay (NCI)
“And” between values parts separate entries of the source, which are not always exact repeats. Equal entries are not always repeated.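 All cell lines were grown in 96-well plates and treated with compound for 48 hours. Here, GI50 denotes the concentration required for 50% inhibition of growth. The concentration for full growth arrest is given as TGI.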

Tested on: NCI-H322M lung
Assay: inhibition of tumour cell growth, NCI panel, 48 h

| Compound | TGI [µM] | GI50 |
| --- | --- | --- |
| S=C1NC2=C(CSC/C2=C\c2ccccc2)C(c2ccccc2)N1 (stereo not given) | > 100 | – |
| c1ccc(-c2nc(N3CCCNCC3)c3nc(-c4ccccc4)oc3n2)cc1 | 2.95 | 1.58 µM |
| N#CC(C#N)=c1c2nsnc2c(=C(C#N)C#N)c2nsnc12 | 3.12 | – |
| COc1ccc2[nH]c(-c3ccc(O)cc3)cc(=O)c2c1 | > 100 | – |
| COc1ccc(-c2c(C3=NCCCN3)nnn2-c2ccc([N+](=O)[O-])cc2)cc1 | > 100 | – |
| CN1CCN(C2=C(Cl)C3(OCCS3)C(F)(F)C2(F)F)CC1 (stereo not given) | > 100 | – |
| O=S1(=O)C[C@@H](NCc2ccccc2)[C@H](NCc2ccccc2)C1 | > 100 | – |
| Cc1cccc(C)c1N1C(=O)C(=O)C(c2nc3ccccc3s2)/C(=N/NC(=O)NN)C1=O (stereo not given) | > 100 | – |
| COc1c(O)c(OC)c2oc(-c3ccc(O)cc3)c(OC)c(=O)c2c1O | > 100 | – |
| CCN(CC)c1ccc(/C=C/C2=[N+](C)c3ccccc3C2(C)C)c(C)c1 | 8.83 | 0.272 µM |
| CC(=O)Oc1c(C)c(C)c2c(c1C)CCC(C)(CC(=O)OCCCCCCCCCCC[P+](c1ccccc1)(c1ccccc1)c1ccccc1)O2 (stereo not given) | 1.01 | 0.275 µM |
| C/C(=C\CO)CC/C=C(\C)CNc1ccc([N+](=O)[O-])cc1 | 41.6 | – |
| O=C(c1cccs1)C1NO[N+]([O-])=C1c1cccs1 (stereo not given) | > 57.2 | 24.7 µM |
| Cc1cc(C)nc(NS(=O)(=O)c2ccc(NC(=O)c3cccc4c(NNc5ccc(S(=O)(=O)N=C(N)N)cc5)c5ccccc5nc34)cc2)n1 | > 50 | – |
| COC1C(O)C(O[C@H]2CC[C@@]3(C)C(CC[C@@H]4[C@@H]3CC[C@]3(C)[C@@H](C(C)OC5OC(CO)C(O)C(O)C5O)CC[C@]43O)C2)OC(C)C1OC1OC(CO)C(O)C(O)C1O (stereo not given in full) | > 100 | – |
| Cc1ccc2oc(=O)c(-c3ccccc3)nc2c1 | 86.2 | – |
| Nc1ccc(-c2nn3c(COc4ccc(Cl)cc4)nnc3s2)cc1 | > 100 | – |
| C/C(=N\Nc1nc2ccccc2s1)c1ccc2ccccc2n1 | > 100 | – |
| CN(C)c1ccc(Cc2cc3c(O)ccc(O)c3cc(Cc3ccc(N(C)C)cc3)c2=O)cc1 | > 100 | – |
| c1ccc(C2CC(=NC3CCCCC3)Nc3ccccc3N2)cc1 (stereo not given) | > 100 | – |
| Cc1c(-c2ccccc2)[nH]n(C2=NCCN2)c1=O | > 100 | – |
| O=C1C2=C(CCC2)Nc2cccc3ncn1c23 | > 100 | – |
| O=C(OCC1OC(n2nc(Cn3nnc(-c4cccnc4)n3)n(-c3cccc4ccccc34)c2=S)C(OC(=O)c2ccccc2)C1OC(=O)c1ccccc1)c1ccccc1 (stereo not given) | > 100 | – |
| CCOC(=O)C(NC(=O)Nc1ccc(Cl)cc1)(OC)C(F)(F)F (stereo not given) | > 100 | – |
| O=C1/C(=C/c2ccc([N+](=O)[O-])cc2)COc2ccc(O)cc21 | > 100 | > 100 µM |
| O=C(O)CCCCCCCCC(=O)O | > 500 | – |

| Compound | TGI [µM] | GI50 |
| --- | --- | --- |
| O=[N+]([O-])c1cc(Cl)ccc1Sc1ccccc1 | > 100 | – |
| O=S1CSSC1 | 66.8 | – |
| COc1cc(C2c3cc4c(cc3[C@@H](Nc3ccc5c(c3)OCO5)C3COC(=O)[C@H]23)OCO4)cc(OC)c1O (stereo not given in full) | > 100 | – |
| COc1ccc(Oc2cnn(C(Br)(Br)C(C)=O)c(=O)c2Br)cc1 | > 100 | – |
| COc1ccc(OC)c2sc(N3C(=O)/C(=C/c4cccc([N+](=O)[O-])c4)N=C3c3ccccc3)nc12 | > 100 | – |
| O=C1[C@H]2ON(c3ccccc3)C(c3ccco3)[C@H]2C(=O)N1c1ccc(Cc2ccc(N3C(=O)[C@@H]4ON(c5ccccc5)C(c5ccco5)[C@@H]4C3=O)cc2)cc1 (stereo not given in full) | > 100 | – |
| Cc1c(C)c(CC(=O)N2CC2)c(C)c(C)c1CC(=O)N1CC1 | 46.8 | – |
| CCOC(OC1=C(C#N)CCCC1)C(CC)[Se]c1ccccc1 (stereo not given) | > 100 | – |
| N#Cc1c(-c2ccccc2)c2c([nH]c1=O)-c1cc([N+](=O)[O-])ccc1CCC2 | > 100 | – |
| Nc1nc(Nc2ccccc2)sc1C(=O)c1ccco1 | 57.8 | – |
| c1ccc2c(c1)CCCC/C2=N/OCC1CO1 (stereo not given) | > 100 | – |
| CC1=NNC(=O)C1C1CC(c2c[nH]c3ccccc23)=NN=C1Cl (stereo not given) | > 100 | – |
| COC(=O)c1ccc2c(c1)C(=O)c1c-2n(CCCN=[N+]=[N-])c(=O)c2cc([N+](=O)[O-])ccc12 | > 100 | > 100 µM |
| CON(C)C(=O)C1CCCO1 (stereo not given) | > 100 | – |
| CC(C)[O-].CC(C)[O-].O=c1cccccc1[O-].O=c1cccccc1[O-].[Ti+4] | > 100 | – |
| O=S1SC(=S)C2C=CC=CC21 (stereo not given) | > 100 | – |
| O=c1c2ccccc2sc2ccccc12 | > 100 | – |
| C=CCN1C(=O)/C(=C/c2ccc(C)cc2)N=C1SC1OC(COC(C)=O)C(OC(C)=O)C(OC(C)=O)C1OC(C)=O (stereo not given) | > 100 | – |
| COc1ccc(-c2cnoc2-c2cc(OC)c3c(c2)OCCO3)cc1 | > 100 | 0.0863 µM |
| OCc1ccc(N2CCOCC2)cc1Cl | > 100 | > 100 µM |
| CN1N=C(c2ccncc2)OC1c1ccccc1F (stereo not given) | > 100 | – |
| COc1cc([N+](=O)[O-])c(OC)c2c(Nc3ccc(S(=O)(=O)O)c4cc(S(=O)(=O)O)cc(S(=O)(=O)O)c34)cc(C)nc12 | > 100 | – |
| O=C1C(C(O)(C(F)(F)F)C(F)(F)F)CCC1C(O)(C(F)(F)F)C(F)(F)F (stereo not given) | > 100 | – |
| Cc1cc(C)c(/C=C(\C(=C/c2c(C)cc(C)cc2C)[N+](=O)[O-])[N+](=O)[O-])c(C)c1 | > 100 | – |
| CN(C)c1cccc2c1C(=O)C=CC21c2ccc(N(C)C)c3c(N(C)C)ccc(c23)C(c2ccccc2)C1c1ccccc1 (stereo not given) | 43.4 | – |
| O=C1c2cccc3cccc(c23)C(=O)N1O | > 100 | – |

| Compound | TGI [µM] | GI50 |
| --- | --- | --- |
| COc1ccc(C(=O)c2nc3ccccc3n2CC(=O)c2ccc(Cl)cc2)cc1 | > 100 | > 66.1 µM |
| COc1cccc2c(=O)c3c(sc12)c(NCCCNCCO)nc1ccccc13 | 3.12 | 1.59 µM |
| c1ccc2[nH]c(CNc3ccc(C4C[Se]N=N4)cc3)nc2c1 (stereo not given) | > 100 | – |
| COc1ccc([C@H]2C=[N+]([O-])O[C@H](OC3CCCC3)[C@@H]2OC(C)=O)cc1OC | > 100 | – |
| CC1(C)CC(C#Cc2ccccc2)CC(C)(C)N1O | 35.7 | – |
| Cc1ccc(C)c(N2C(=O)C(=O)C(c3nc4ccccc4s3)C(=Nc3cccc4c(=O)[nH][nH]c(=O)c34)C2=O)c1 (stereo not given) | > 100 | – |
| O=C(Cl)C1=C(c2ccccc2)C1c1ccccc1 (stereo not given) | > 100 | – |
| O=c1[nH]c2cc([N+](=O)[O-])ccc2nc1/C(=N\Nc1ccccc1)C(O)c1ccc2c(c1)OCO2 (stereo not given) | > 100 | – |
| C=C1C2Oc3ccccc3C1N(c1ccccc1)O2 (stereo not given) | > 100 | – |
| CC(C)=CCC[C@@H](C)C1=C(O)C(N)=C(C)C(=O)C1=O | > 100 | – |
| Cc1cc(O)c(-c2cc(O)c(C)cc2O)cc1O | 35.8 | – |
| Cc1ccccc1/C=C/C(=O)c1ccccc1 | 35 | – |
| Clc1nncc2sc(-c3ccccc3)nc12 | 46.8 | – |
| C[C@]12C/C(=C/O)C(=O)C(O)=C1CC[C@@H]1C2CC[C@@]2(C)C1CC[C@@H]2O (stereo not given in full) | 48.7 | – |
| CC1(O)CCn2c(=O)c3cc4ccccc4cc3c(=O)n2C1O (stereo not given) | > 100 | – |
| C=CCNC(=O)N(CCC)CCCC(NC(C)=O)C(=O)NCc1ccccc1 (stereo not given) | > 100 | – |
| CC(C)(C)NCC(COc1ccc([N+](=O)[O-])cc1)OP(c1ccccc1)c1ccccc1 (stereo not given) | > 100 | – |
| CCOC(=O)c1sc2ncnc(N)c2c1C | > 100 | – |
| O=C(CC(=O)Nc1ccccc1)NNC(c1cc(N=Nc2ccc(Br)cc2)ccc1O)P(O)O (stereo not given) | > 10 | – |
| COc1ccc2c(c1)c(=O)c1c(NCCNCCO)ccc3c(=O)n(CCN(C)C)c(=O)n2c31 | 0.394 | – |
| Cc1cccc(/C(Br)=C2/OC(=O)c3ccccc32)c1 | > 100 | – |
| CC(C)(C)c1ccc(OC2CCO2)cc1 (stereo not given) | > 100 | – |
| Cc1cc2c(cc1Cl)S/C(=C/C(=O)O)C(Nc1cccc3nsnc13)=NS2(=O)=O | > 72.1 | 52.9 µM |
| O=S1(=O)c2cnccc2NC(=NCc2ccccc2)N1c1ccccc1 | > 100 | – |
| COC(=O)[C@H](Cc1ccccc1)NC(=O)N(CCC#N)CCN(C(=O)N[C@@H](Cc1ccccc1)C(=O)OC)c1ccccc1 | 42.1 | – |
| CN(C)CCCNC(=O)c1c(O)c2ccccc2n(C)c1=O | > 100 | – |

| Compound | TGI [µM] | GI50 |
| --- | --- | --- |
| COc1nc2c(N3CCCC3)nc(N3CCNCC3)nc2nc1NCc1ccccc1 | 10.1 | – |
| Cc1c2ccncc2c(C)c2c1[nH]c1ccc(O)c(OCC(F)(F)F)c12 | 15.6 | – |
| Fc1ccc2nc(-c3cc(-c4ccc5c(c4)OCO5)n[nH]3)[nH]c2c1 | > 100 | 6.3 µM |
| CC(C)/C(Cl)=N/OC(=O)Nc1ccc(OC(F)(F)F)cc1 | 30.4 | – |
| c1cnn2ncc(-c3ccnc(Nc4ccc5c(c4)OCCO5)n3)c2c1 | – | 0.0896 µM |
| CC(=Nc1ccc(S(N)(=O)=O)cc1)c1c(O)[nH]c2ccccc12 | > 25 | 15 µM |
| Cc1ccc(NC(=O)/C(Cc2nc3ccc([N+](=O)[O-])cc3[nH]c2=O)=N\NC(=O)C[n+]2ccccc2)c(C)c1 | > 100 | – |
| CCCCCCCCCCCC1CC(=O)NCCCN(C)CCCCN(C)CCCN1C (stereo not given) | 3.13 | – |
| Nc1ccccc1C(=O)C(Br)C(Br)c1ccc2c(c1)OCO2 (stereo not given) | > 100 | – |
| O=C1CS(=O)(=O)C(c2cccc(Oc3ccccc3)c2)N1c1cc(Cl)ccc1Cl (stereo not given) | > 100 | – |
| N.N.N.N.N.O=S(=O)([O-])S(=O)(=O)[O-].[Co+3] | > 100 | > 100 µM |
| Clc1ccc(/C(=C\c2ccccc2)Cn2ccnc2)cc1 | 92.6 | – |
| Cc1ccc(-n2nc(C(C)(C)C)cc2NC(=O)NCc2cc(F)ccc2Oc2ccc3c(cnn3CCO)c2)cc1 | > 100 | 6.47 µM and 7.69 µM |
| O=[N+]([O-])c1ccc(-c2cc3c(Nc4ccc(Cl)c(C(F)(F)F)c4)ncnc3s2)cc1 | > 100 | 1.19 µM |
| CSc1nc2c(ncn2C2OC(CO)C(O)C(O)C2O)c(=O)[nH]1 (stereo not given) | > 100 | – |
| CCNc1ncnc2sc(SCc3ccccc3)nc12 | > 100 | – |
| CCCCCCCCCCCCCCCCCCOCC(COCCOCC[N+]1(CCCCCC(=O)[O-])CCCC1)Oc1ncccn1 (stereo not given) | 4.13 | – |
| CC(C)N1CN(c2ccccc2)C2(CCN(CCCC(=O)c3ccc(F)cc3)CC2)C1=O | > 100 | – |
| CCNCCNc1cc(-c2ccc(C#N)cc2)c(C#N)c2nc3ccccc3n12 | 15.3 | 3.76 µM |
| O=C(NN1C(=O)CSC1c1cccc(F)c1)c1ccncc1 (stereo not given) | > 100 | – |
| CCOC(=O)C1=CC(C)(C(=O)OCC)Nc2c(nc(N)[nH]c2=O)N1 (stereo not given) | > 10 | – |
| COc1ccc(Nc2nccc(N3CCN(c4c5ccc(Cl)cc5nc5ccc(OC)cc45)CC3)n2)cc1 | > 100 | 88.1 µM |
| CCOC(=O)C1CCC(=O)N1C(=O)c1ccccc1Cl (stereo not given) | > 100 | – |
| COc1ccc(C2c3cc4c(cc3OC(NCCO)C2C)OCO4)cc1 (stereo not given) | 95.4 | – |
